{"source": "patent US20080090900A1", "about": "“ANTIBIOTIC BUSHRIN” (University of Karachi, priority 2006, published 2008)", "key": {"[1]": {"tested_on": "MRSA methicillin resistant staphylococcus aureus", "experiment": "microbe, parasite or virus in culture", "conditions": "read-out: Sensitivity (width of inhibition zone)"}, "[2]": {"tested_on": "MRSA methicillin resistant staphylococcus aureus", "experiment": "microbe, parasite or virus in culture", "type": "cell-based"}}, "data": [{"smiles": "Cc1cc(O)c2c(c1)C=CC(C)(c1ccoc1)C2", "note": "(centres unmarked) [Compound 1, 7-(3-furyl)-3,7-dimethyl-7,8-dihydro-1-naphthalenol]", "values": [{"measurement": "zone of inhibition at 150 µg/disc", "setting": "[1]", "result": "18 to 30", "unit": "mm"}, {"measurement": "MIC", "setting": "[2]", "result": 60, "unit": "µg/mL"}]}]}
